In PMC4336329 (PLoS ONE, 2015):
About 2,200 (0.71%) of roughly 310,000 compounds showed an effect of 50% or more. The effect is printed as a negative number. The list shows a part of the results.

These compounds were tested against human ether-à-go-go-related gene (hERG) potassium channel (human, UniProt Q12809) (assay: primary screen, population patch clamp on CHO cells stably expressing hERG).
human ether-à-go-go-related gene (hERG) potassium channel, sequence (Q12809 whole entry, looked up): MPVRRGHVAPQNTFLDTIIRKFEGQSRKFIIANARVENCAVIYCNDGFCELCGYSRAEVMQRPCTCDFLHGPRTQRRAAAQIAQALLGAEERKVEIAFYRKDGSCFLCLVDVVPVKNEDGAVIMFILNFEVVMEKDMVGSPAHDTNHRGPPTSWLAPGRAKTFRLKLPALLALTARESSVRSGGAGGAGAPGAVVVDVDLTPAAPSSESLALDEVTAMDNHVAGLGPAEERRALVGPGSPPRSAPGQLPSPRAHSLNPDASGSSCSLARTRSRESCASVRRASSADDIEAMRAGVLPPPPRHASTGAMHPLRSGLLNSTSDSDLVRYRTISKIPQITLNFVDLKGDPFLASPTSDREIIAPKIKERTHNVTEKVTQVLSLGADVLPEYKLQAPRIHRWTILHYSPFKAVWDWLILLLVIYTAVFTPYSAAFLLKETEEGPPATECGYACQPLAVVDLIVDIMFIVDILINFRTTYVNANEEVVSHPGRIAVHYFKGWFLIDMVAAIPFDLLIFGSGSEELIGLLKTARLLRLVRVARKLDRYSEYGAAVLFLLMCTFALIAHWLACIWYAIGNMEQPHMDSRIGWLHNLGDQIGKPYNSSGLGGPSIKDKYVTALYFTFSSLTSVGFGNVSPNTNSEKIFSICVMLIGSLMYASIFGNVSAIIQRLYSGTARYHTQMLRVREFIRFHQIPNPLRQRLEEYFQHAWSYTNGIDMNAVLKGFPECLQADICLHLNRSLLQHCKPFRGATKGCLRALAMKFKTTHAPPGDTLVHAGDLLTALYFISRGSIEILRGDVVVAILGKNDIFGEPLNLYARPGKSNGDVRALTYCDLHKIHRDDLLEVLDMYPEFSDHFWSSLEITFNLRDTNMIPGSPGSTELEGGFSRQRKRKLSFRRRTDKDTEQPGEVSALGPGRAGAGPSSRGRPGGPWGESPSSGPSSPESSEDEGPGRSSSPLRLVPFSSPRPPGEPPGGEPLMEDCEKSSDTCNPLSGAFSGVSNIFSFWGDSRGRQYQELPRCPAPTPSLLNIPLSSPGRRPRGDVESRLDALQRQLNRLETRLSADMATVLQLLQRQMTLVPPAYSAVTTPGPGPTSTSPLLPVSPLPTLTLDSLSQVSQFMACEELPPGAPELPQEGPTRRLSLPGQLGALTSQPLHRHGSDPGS

SMILES	hERG current change (%, negative = inhibition) at 1uM [%]
CN(C)CCN(C(=O)CCS(=O)(=O)c1ccccc1)c1nc2c(F)cccc2s1	17.7
O=C(NCCc1cccs1)C1CC(c2ccccc2[N+](=O)[O-])=NO1 (stereo not drawn)	6.79
COc1cc(C(=O)NNC(=O)c2ccc(S(=O)(=O)N3CCCCC3)cc2)cc(OC)c1OC	-15.7
COc1ccc(-c2ccc(CCC(=O)O)n2NC(=O)c2ccc(O)cc2)cc1	10.9
CNC(=O)c1ccc(NC(=O)Nc2ccccc2)cc1	9.05
COc1ccccc1NC(=O)CSc1nnc(-c2ccccn2)n1Cc1ccco1	11.3
Cc1ccc(C(=O)CCC(=O)Nc2cccc(C)c2)cc1	15.9
O=C(CSc1ncnc2c1nnn2Cc1ccc(F)cc1)NC1CCCCC1	8.72
Cc1cc(C(=O)N=Nc2c(O)n(C(C)C)c3ccccc23)n[nH]1	0.743
COc1ccccc1OCC(=O)N1CCC2(CC1)CC(=O)c1ccccc1O2	-4.96
CC(=O)c1nn(-c2ccccc2)cc1C(=O)c1ccc(Br)cc1	20.8
COC(=O)CSc1nnc(-c2ccco2)o1	14.4
CCCCC(CC)CNC(=O)/C=C/c1ccc(F)cc1 (stereo not drawn)	9.7
CCOc1ccc(-c2csc(NC(=O)CSCC(=O)O)n2)c2ccccc12	12.4
CCOc1cc(CNc2ncn[nH]2)ccc1OCC(=O)NC(C)(C)C	10.6
COc1cc2c(cc1OC)C(CC(=O)O)N(C(=O)CC1CCCC1)CC2 (stereo not drawn)	10.9
O=C1NCC(c2ccccc2)C1C(=O)N/N=C\c1ccc(-c2ccc(Cl)c(Cl)c2)o1 (stereo not drawn)	19.5
CCCCN(CCCC)CCNC(=O)c1cn(C)c2ccc(S(=O)(=O)N(C)C3CCCCC3)cc2c1=O	-32.3
COc1ccc(CCNC(=O)CN2C(=O)COc3ccc(S(=O)(=O)N4CCOCC4)cc32)cc1OC	6.98
Cc1ccccc1CN1CCN(Cc2ccccc2)CC1.O=C(O)C(=O)O	6.37
CCCn1c(SCC(=O)NC)nc2sc3c(c2c1=O)CCC3	13.9
COC(=O)C1CCCCN1C(=O)c1ccc2oc(Cc3ccccc3)nc2c1 (stereo not drawn)	7.55
COCC(=O)OCC(=O)Nc1ccccc1-c1ccccc1	15.2
O=C(Nc1ccccc1)N1CCN(Cc2ccc3c(c2)OCO3)CC1	-0.794
